The chains are these.
B1: LINE1-full (parent)
chain: UACGUAGGUGGUUUUCCCCUGAUAGUGCUAAGGGGGCCUGGAAGUUUGGACUGGGCAGAGCUCAACACAGCGUGGCAAAGUGGCUGUGGCUAGACUGCCUCUCUGGAUUCCUCGUCACUCAGCAGGGCAUCUCUGAGAGAAAUGCC

The source gives no read counts; variants with many changes may rest on few reads.

In the series the parent is B1. Description: self-cleavage, relative activity (ratio to wild type); higher = more cleavage; in vitro, sequencing; the parent is a self-cleaving ribozyme.
As to AACGUAGGUGGUCUUCCCCUGAUAGUGCUAAGGGGGCCUGGAAGUUUGGACUGGGCAGAGCUCAACGCAGCGUGGCAAAGAGGCUGUGGCUAGACUGCCUCUCUGGAUUCCCCGUCACUCAGCAGGGCAUCUCUGAGAGAAAUGCC [U1A U13C A67G U81A U112C], the self-cleavage came out at 1.06.
As to UACGUAGGUGGUUUUCCCCUGAUAGUGCUAAGGGGGCCUGGAAGUUUGGACUGGGCAGAGCUCAACGCAGCGUGGCAAAGUGGCUGUGGCUAGACUGCCUCUCUGGAUUCCUCGUCACUCAGCAGGGCAUCUCUGAGGGAAGUGCC [A67G A138G A142G], the self-cleavage is 0.63.
For the variant UACGUAGGUGGCUUUCCCCUGAUAGUGCUAAGGGGGCCUGGAAGUUUGGACUGGGCAGAGCUCAACACAGCGUGGCAAGGUGGCUGUGGCUAGACAGCCUCUCUGGAUUCCUCGUCACUCAGCAGGGCAUCUCUGAGAGAAAUGCC [U12C A79G U96A], the self-cleavage was determined as 0.18.
The figure for UACGUAGGUGGUUUUCCCCUGAUAGUGCUAAGGGGGCCUGGAAGUUUGGGCUGGGCAGAGCUCUACACAGCGUGGCAAAGUGGCCGUGGCUAGACUGCCUCUCUGGAUUCCUCGUCACUCAGCAGGGCUCCUCUGAGAGAAAUGCC [A50G A64U U85C A129U U130C] is 0.17.
Turning to UACGUAGGUGGUUUUCCCCUGGUAGUGCUAAGGGGGCCUGGAAGUUUGGACUGGGCAGAGCUCAACACAGCGUGGCAGAGUGGCUGUGGCUAGACUGCCUCUCUGGAUUCCUCGUCACUCAGCAGGGCAUCUCUGGGAGAAAUGCC [A22G A78G A136G], the self-cleavage was found to be 0.57.
CACGUAGGUAGUUUUCCCCUGAUAGUGCCAAGGGGGCCUGGAAGUUUGGACUGGGCAGAGCUCAACACAGCGUGGCAGAAUGGCUGUGGCUAGACUGCCUCUCUGGAUUCCUCGUCACUCAGCAGGGCAUCUCUGAGAGAAAUGCC [U1C G10A U29C A78G G80A]: the self-cleavage was 1.94.
For the variant UACGUAGGAGGUUUUCCCCUGAUAGUGCUAAGGGGGCCUGGAAGUUUGGGCUGGGCAGAGCUCAACACAGCGUGGCAUAGUGGCUGCGGCUAGACUGCCUCUCUGGAUUCCUCGUCACUCAGCAGGGCAUCUCUGAGAGAAAUGCC [U9A A50G A78U U87C], the self-cleavage was 0.06.
In the case of UACGUAGGUGGUUUUCCCCUGAUAGUGCUAAGGGGGCCUGGAAGUUUGGACUGGGCAGAGCUCAACACAGCGUGGCAAAGUGGCUGAGGCUAGACUGCCUCUCUGGAUUCCUCGUCACUCAGCAGGGCAUCUCUGGGAGAAGUGCC [U87A A136G A142G], the self-cleavage turned out to be 0.05.
As for UACGCAGGUGGUUUUCCCCUGAUAGCGCUAAGGGGGCCUGGAAGUUUGGACAGGGCAGAGCUCAACACAGCGUGGCAACGUGGCUGUGGCUAGACUGCCUCUCUGGAUUCCUCGUCACUCAGCAGGGCAUCUCUGAGAGAAAUGCC [U5C U26C U52A A79C], the figure is 0.97; as for UACGUAGGUGGUUUUCCCCUGAUAGUGCUGAGGGGGCCUGGAAGUUUGGACUGGGCAGAGCUCAAUACAGCGUGGCAAAGUGGCUGCGGCUAGACUGCCUCUCUGGAUUCCUCGUCACUCAGCAGGGCAUCUCUGAGAGAAAUGCC [A30G C66U U87C], 0.
For UACGUAGGUGGUUUUCCCCUGAUAGUGCUAAGGGGGCCUGGAAGUUUGGACUGGGCUGAGCUCAACACAGCGUGGCAAAGUGGCUGUGGCUAGACUGCCUCUCUGGAUUCCUCGUCACUCGGCAGGGCAUCUCUGGGAGAAAUGCC [A57U A121G A136G], the self-cleavage turned out to be 0.16.
For UACGUAGGUGGUUUUCCCCAGAUGGUGCUAAGGGGGCCUGGAAGUUUGGUCUGGGCAGAGCUCAACACAGCGUGGCAAAGUGGCUGUGGCUAGACUGCCUCUCUGGAUUCCUCGUCACUCAGCAGGGCACCUCUGAGAGAAAUGCC [U20A A24G A50U U130C], the self-cleavage was found to be 1.09.
As for UACGUAGGUGGUUUUCCCCUGAUAGUGCUAAGGGGGCCUGGAAGUUUGGACUGGGCAGAGUUCAACACAGCGUGGCAAAGUGGCUGUGGCUAGACCGCCUCUCUGAAUUCCUCGUCACUCAGCAGGGCAUCUCUGAGAGAAACGCC [C61U U96C G106A U143C], the figure is 0.04; as for UACGUAGGUGGUUUUCCCCUGAUAGUGCUAAGGGGGCCUGGAAGUCUGGACUGGGCAGUGCUCAACACAGCGUGGCAAAGUGGCUGUGGCUAGACUGCCUCUCUGGAUCCCUCGUCACUCAGCGGGGCAUCUCUGAGAGAAAUGCC [U46C A59U U109C A124G], 0.99; as for UACGUAGGUGGUCUUCCCCUGAUAGUGCUAAGGGGGCCUGGAAGUUUGGACUGGGCAGAGCUCAACACAGCGUGGCAAAGUGGCUGUGGCUAGACUGCCUCUCUGGAUUCCUCGUCACACAGCUGGGCAUCUCUGAGGGAAAUGCC [U13C U119A A124U A138G], 2.08.
With UACGUAGGUGGUUUUCCCCUGAUAGUGCUAAGGGGGUCUGGAAGUUUGGACUGGGCAGAGCUCAACACAGCGUGGCAAAGUGGCUGUGGCUAGACUGCCUCCCUGGAUUCCUCGUCACUCAGCAGGGCAUCUCUGAGAGAAGUGCC [C37U U102C A142G], the self-cleavage amounted to 0.61.
In the case of UACGUAGGUGGUUUUCCCCUGAUAGUGCUAAGGGGGCCUGGAAGUUUGGACUGGGUAGAGCUUAACACAGCGUGGCAAAGUGGCUGUGGCUAGACUGCCUCUCUGGAUUCCUCGUCACUCAGCAGGGCAUCACUGAGAGAAGUGCC [C56U C63U U132A A142G], the self-cleavage turned out to be 0.05.
As for UACGUAGGUGGUUUUCCCCUGAUGGUGCUAAGGGGGCCUGGAAGUUUGGACUGGGCAGAGCCCAACACAGCGUGGCAAAAUGGCUGUGGCUAGACUGCCUCUCUGGAUUCCUCGACACUCAGCAGGGCAUCUCUGAGAGAAAUGCC [A24G U62C G80A U115A], the self-cleavage worked out at 0.07.
As for UACGUAGGUGGUUUUCCCCUGAUAGUGCUAUGGGGGCCUGGAAUUUUGGACUGGGCAGAGCUCAACACAGCGUGGCAAAGUGGCUGUGGCUAGACUGCCUCUCUGGAUUCCUCGUCACUCAGCAGGGCAUCUCUGAGAGGAAUGCC [A31U G44U A140G], the figure is 0.97.
